# The whole screen tested about 340,000 compounds, of which about 6,900 (2%) were called active. Rule as the data show it: active = inhibition above about 30%; inactive = below that, where a call was filed. The list shows a part of the results, in another mix than the full data. Where no call is shown, the source filed none.
# Target: D(2) dopamine receptor (Homo sapiens) (UniProt P14416)
# Assay: HTS Assay for Allosteric Antagonists of the Human D2 Dopamine Receptor: Primary Screen for Antagonists; also: 0% is about no effect
# Conditions: HEK293 TREx D2 cells, calcium flux, dopamine EC80; at 10 µM; stronger effect = higher value
# How it was run: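 Tetracycline-induced HEK293 TREx cells expressing D2 receptor forced-coupled to calcium signalling, loaded with no-wash calcium dye. Compounds added and calcium flux read 180 s, then dopamine added at EC80 and read a further 180 s.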
# Sequence of UniProt P14416 (P14416 whole entry, looked up): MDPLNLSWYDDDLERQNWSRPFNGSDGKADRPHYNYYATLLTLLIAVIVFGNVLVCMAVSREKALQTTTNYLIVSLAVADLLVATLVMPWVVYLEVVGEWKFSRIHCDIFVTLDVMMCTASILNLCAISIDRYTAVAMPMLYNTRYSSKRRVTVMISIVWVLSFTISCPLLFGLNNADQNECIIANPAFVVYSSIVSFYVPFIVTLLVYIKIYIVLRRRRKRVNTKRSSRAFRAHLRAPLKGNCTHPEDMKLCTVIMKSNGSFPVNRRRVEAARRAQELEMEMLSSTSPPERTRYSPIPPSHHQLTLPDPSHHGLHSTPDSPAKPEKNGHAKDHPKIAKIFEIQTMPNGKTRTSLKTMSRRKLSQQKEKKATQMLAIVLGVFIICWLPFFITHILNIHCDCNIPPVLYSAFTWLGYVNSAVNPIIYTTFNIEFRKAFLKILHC
row,Compound,inhibition
1,COc1cc(Cl)ccc1Nc1ncc(C(=O)N2CCN(c3ccccc3OC)CC2)c2ccccc12,-16.7%
2,COc1ccccc1Nc1cc(C(=O)NCCCN(C)c2ccccc2)c2ccccc2n1,4.85%
3,CCN(Cc1ccccc1)S(=O)(=O)c1ccc(F)c(C(=O)Nc2cc(C)ccc2OC)c1,14.3%
4,Cc1cccc(NC(=O)C2CCN(S(=O)(=O)c3c(C)noc3/C=C/c3ccco3)CC2)c1,7.54%
5,Cc1cccc(C)c1-n1ncc(C(=O)NCCN2CCN(C)CC2)c1C1CCN(C(=O)OC(C)(C)C)CC1,-9.86%
6,CCOc1ccc(C(=O)NCc2nc(-c3ccc(Cl)cc3)no2)cc1OCC,-10.5%
7,CCOC(=O)c1cnc2ccc(OC)cc2c1Nc1cccc(C(C)=O)c1,6.3%
8,COc1ccc(CNC(=O)C2CCN(C(=O)N3CCOc4ccc(Cl)cc43)CC2)cc1,17%
9,Cc1ccc(C)c(S(=O)(=O)n2nc(C)c(S(=O)(=O)N3CCCCCC3)c2C)c1,-12.1%
10,COc1ccc(NC(=O)CCCN2C(=O)CCn3nc(-c4cn(C)c5ccccc45)cc32)cc1,-24.3%
11,Cc1cc(Nc2ccccc2O)nc(C)n1,-10.1%
12,O=C(CN1C(=O)C2(SCC(=O)N2c2ccc(F)c(F)c2)c2ccccc21)Nc1cccc(Cl)c1 (stereo unspecified),2.15%
13,O=C(CCC1CCCCC1)Nc1nccs1,active: 42.6%
14,COc1c(C)cc(NS(=O)(=O)c2ccc3c(c2)OCCO3)cc1C,17.6%
15,COc1ccc2c(C)c(CCC(=O)NCc3ccccc3Cl)c(=O)oc2c1C,-1.85%
16,Cc1ccc(-c2nn(CCC(N)=O)c(=O)c3ccccc23)cc1,-2.22%
17,CCOc1ccc(NC(=O)CCNS(=O)(=O)c2cccs2)cc1,6.21%
18,Cc1cc(Br)ccc1NC(=O)CNC(=O)COc1ccccc1C,active: 31.9%
19,COc1ccc(Cl)cc1C(=O)NCCS(=O)(=O)N1CCN(c2ccccc2OC)CC1,-16%
20,COc1cccc(NC(=O)Cn2c(=O)n(Cc3ccc(C(=O)NCc4ccc(C)cc4)cc3)c(=O)c3ccccc32)c1,-4.89%
21,CCOC(=O)c1c(C)n(-c2ccccc2)c2ccc(OC(=O)c3c(F)cccc3F)cc12,13.1%

row,Compound,inhibition
1,CCOc1ccc(Cn2c(CNS(=O)(=O)c3ccc(C(C)(C)C)cc3)nc3cccnc32)cc1,10.7%
2,CCOc1ccc(CNC(=O)C2=Cc3cccc(OC)c3OC2)cc1,20.1%
3,COc1ccc(CCNC(=O)C2c3ccccc3C(=O)N2Cc2ccccc2)cc1OC (stereo unspecified),4.15%
4,CC(=O)N(C)c1nnc(-c2ccccn2)s1,active: 42.6%
5,CCOc1ccc(NC(=O)CN(C)Cc2ccc3c(c2)OCO3)cc1S(=O)(=O)N1CCCC1,active: 58.2%
6,O=C(Cc1ccc(NC(=O)N2CCSc3ncccc32)cc1)NCc1cccc(Cl)c1,-15.1%
7,Cc1ccc2c(=O)c(C(=O)c3ccc(Cl)cc3)cn(CC(=O)Nc3ccc4c(c3)OCCO4)c2n1,-0.562%
8,CCOc1ccccc1CNC(=O)c1oc2c(c1C)-c1nn(Cc3cccc(Cl)c3)cc1CC2,11.4%
9,Cc1cccc(C(=O)NCc2nc3ccccc3n2Cc2ccccc2Cl)c1,-3.84%
10,Cc1ccc(NC(=O)C2CCCN2S(=O)(=O)c2cccc3cccnc23)c(C)c1 (stereo unspecified),24.7%
11,O=C(Nc1cccc(OCc2cc(=O)n3ccccc3n2)c1)Nc1cccc(C(F)(F)F)c1,7.11%
12,COCCn1c(=N)c(C(=O)NC2CCCC2)cc2c(=O)n3cc(C)ccc3nc21,3.59%
13,Cc1cccc(C)c1NC(=O)CCC(=O)N1Cc2ccccc2Oc2ncccc21,-0.711%
14,CCC(=O)N1CCc2cc(Br)cc(S(=O)(=O)CCC(=O)Nc3ccc(Cl)cc3)c21,2.81%
15,CCOC(=O)c1cc(-c2ccc(C)cc2)n(CCC(=O)NCCc2ccc(C)cc2)c1C,4.09%
16,COc1cc(-c2cc3n(C)c(C)c(CCC(=O)NC4CCCCC4)c(=O)n3n2)cc(OC)c1OC,20.3%
17,CCC(=O)N1CCc2cc(Br)cc(S(=O)(=O)N3CCN(c4cc(C)ccc4C)CC3)c21,12.5%
18,CCN(CC)CCNC(=O)c1cn(CC)c2ccc(S(=O)(=O)N3CCc4ccccc4C3)cc2c1=O,6.78%
19,O=C(NC1CCN(Cc2ccccc2)CC1)c1ccc(Cn2c(=O)c3ccccc3n(Cc3cccc(F)c3)c2=O)cc1,23.5%
20,COc1ccc(Oc2nc3c(c(=O)n(C)c(=O)n3C)n2Cc2ccc(Cl)cc2Cl)cc1,-6.17%
21,O=C(COc1ccc(Br)cc1)NCC1COc2ccccc2O1 (stereo unspecified),active: 33.4%

row,Compound,inhibition
1,COc1ccc(OC)c(CC2C(=O)Nc3ccc(Br)cc32)c1 (stereo unspecified),8%
2,CCOC(=O)c1c(C)oc2ccc(N(C(C)=O)S(=O)(=O)c3c(C)cc(C)cc3C)cc12,-13.5%
3,COC(=O)c1cc2sccc2n1Cc1ccc(F)cc1Cl,-11.4%
4,Cc1cc(F)ccc1S(=O)(=O)Nc1cc2c(C(=O)O)c(C)oc2c2ccccc12,4.37%
5,Cc1c(C(=O)Nc2ccc3c(c2)OCO3)sc2nc(-c3ccccc3)cn12,active: 66.7%
6,Cc1cc(N2CCN(c3cc(Cl)ccc3C)CC2)n2nc(-c3ccccc3)nc2n1,2.85%
7,CCCCNC(=O)C1CCC(Cn2c(=O)c3sccc3n(CC(=O)Nc3ccccc3)c2=O)CC1 (stereo unspecified),17.7%
8,N#Cc1ccc(NC(=O)C2Cc3ccccc3CN2S(=O)(=O)c2ccc(F)cc2)cc1 (stereo unspecified),3.54%
9,CCCOC(=S)NC(=O)c1sc2ccccc2c1Cl,active: 30.9%
10,O=C(COc1ccc(F)cc1)Nc1ccc2nc(SCCOc3ccccc3)sc2c1,10.8%
11,O=C(CSCn1nnc2c(=O)[nH]c(Cc3ccc(F)cc3)nc21)Nc1ccccc1,10.5%
12,COc1ccc(NC(=O)C2=CC(c3ccc4c(c3)OCO4)=NS(=O)(=O)N2C)cc1OC,15.3%
13,O=S(=O)(c1ccc(Cl)cc1)c1nc(-c2ccccc2F)oc1NCc1ccccc1,4.6%
14,Cc1ccc(Sc2ccc(N3CCC(C(=O)Nc4ccc(Cl)cc4)CC3)nn2)cc1,13.6%
15,CCc1ccc(C(=O)c2cn(CC(=O)NCc3ccc(C)cc3)c3nc(C)ccc3c2=O)cc1,-1.05%
16,CCc1nn(CC(=O)NCCCc2ccccc2)c(=O)c2cc3cc(F)ccc3n12,-1%
17,O=C(Nc1nc2c(F)cccc2s1)c1ccc2c(c1)OCCO2,-10.8%
18,Cc1ccc(CNC(=O)Cn2c(-c3cccs3)cc3cc(Cl)ccc32)cc1,6.02%
19,CC(=O)c1ccc(NC(=O)c2cc3c(=O)oc4ccc(C)cc4c3s2)cc1,-13.2%

# From PubChem BioAssay AID485344 (National Center for Advancing Translational Sciences (NCATS), 2010)
